# Results as given in PubChem BioAssay AID686979 (National Center for Advancing Translational Sciences (NCATS), 2013).
# The campaign covered roughly 420,000 compounds. About 50,000 (12%) were called active. The inconclusive results got no clear call from the source; some entries with a clear call stand among them for comparison. Calls follow the shape of the dose curve; as a rule, active = well fitted inhibition curve with a large enough effect; inconclusive = small, poorly fitted or top-dose-only effect; inactive = flat fitted curve, though single readings scatter. No potency is given beside an inconclusive call; the fits are too rough.
# Assay: qHTS for Inhibitors of human tyrosyl-DNA phosphodiesterase 1 (TDP1): qHTS in cells in presence of CPT; also: nearly all actives have a fitted effect of over 55% in size
# Details: chicken DT40 Tdp1-/-;hTDP1 cells + 20 nM CPT, ATP luminescence, 48 h; activity change, negative = growth inhibition: at 46.2 µM (top of the series) unless noted
# Summary of the method: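 Chicken DT40 Tdp1-/- cells stably complemented with human TDP1 were seeded at 400 cells/well in medium containing 20 nM camptothecin, exposed to pin-transferred compounds, and grown at 37 °C for at least 48 hr. Viability was read as ATP luminescence.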
# % is scaled to controls: 0 for no effect and ±100 for the full control effect; potency is read from the fitted curve at half-maximal effect; tags tell the direction and shape of the fitted curve.
SMILES,"activity change, negative = growth inhibition",Potency
CCOc1cc(C(=O)Nc2ccc(C(=O)NCCN(CC)CC)cc2)ccc1OCC(=O)N1CCOCC1,inactive: 0.0377%,
CCC(=O)N(Cc1cc2c(C)cc(C)cc2[nH]c1=O)C1CCCCC1,inconclusive: -32.3% [inhibitor],
O=C(Cn1cnc2c(NC(=O)OCc3ccccc3)ncnc21)NCCN1CCOCC1,inactive: -10.2%,
CC1(C(=O)NS(=O)(=O)Cc2cccc(Cl)c2)CCN1C(=O)Cc1cccs1 (configuration not stated),inactive: -19.2%,
O=C(CCC(=O)c1cccs1)NCc1cccc(Cl)c1,inactive: -14.1%,
CC(C)CCn1c(-c2nonc2N)nc2ccccc21,,active: 13 µM
CC(C)N(Cc1ccccc1)C(=O)COC(=O)C1CCN(c2ccc(C(F)(F)F)cn2)CC1,,active: 16.4 µM
O=C(NNC(=O)c1cc(-c2ccncc2)nc2ccccc12)c1ccccc1O,,"inconclusive [inhibitor, single point]"
O=C(CSc1nc2ccc(NC(=O)CSc3nnnn3-c3ccccc3)cc2s1)Nc1ccccc1,,active: 16.4 µM
Cc1cccc(S(=O)(=O)NC(=O)C2(C)CCN2C(=O)Cc2ccc(C(C)(C)C)cc2)c1 (configuration not stated),inactive: -17.6%,
CC(=O)N1CCN(S(=O)(=O)c2cccc(C(=O)OCC(=O)N(Cc3ccccc3)C(C)(C)C)c2)CC1,inactive: -21.8%,
Cc1cc2ncn(C3CC(O)C(CO)O3)c2cc1C (configuration not stated),inactive: -10.8%,
CCN(CC)CCOc1ccc(C(O)(Cc2ccc(Cl)cc2)c2ccc(C)cc2)cc1 (configuration not stated),,active: 2.99 µM
COc1cccc(C(=O)Nc2nc(-c3ccc(S(=O)(=O)N4CCOCC4)cc3)cs2)c1,,active: 20.6 µM
O=C1/C(=C/c2ccncc2)SC(=S)N1Cc1ccccc1,,"inconclusive [inhibitor, single point]"
CC1CN(C(=O)Cn2cc(S(=O)(=O)CC(=O)N(C)c3ccccc3)c3ccccc32)CC(C)O1 (configuration not stated),inactive: 13.6%,
CC(=O)c1ccc(Sc2ccccn2)c([N+](=O)[O-])c1,inactive: -2.54%,
Cc1cc2c(cc1C)C(c1cc(Br)ccc1F)CC(=O)N2 (configuration not stated),,"inconclusive [inhibitor, single point]"
CCOc1ccccc1/C=N/NC(=O)Cc1csc(Nc2cccc(C(F)(F)F)c2)n1,,"inconclusive [inhibitor, single point]"
c1ccc2c(c1)c1ccccc1n1c(-c3ccc4c(c3)OCO4)nnc21,,"inconclusive [inhibitor, single point]"
N#CCCN(Cc1ccccc1)C(=S)NC(=O)c1ccccc1,,active: 9.2 µM
COC(=O)c1c(C)cc(O)c(C=O)c1O,,"inconclusive [inhibitor, partial curve]"
COc1ccc(NC(=O)CC2C(=O)NCCN2C(=O)Nc2ccc(C(F)(F)F)cc2)cc1 (configuration not stated),inactive: -17.9%,
CCOC(=O)c1ccc(N2CCCCC2)c(NS(=O)(=O)c2ccc(C)cc2)c1,,"inconclusive [inhibitor, single point]"

SMILES,"activity change, negative = growth inhibition",Potency
Cc1cc(C)cc(N(CC(=O)N2CCCC2)S(C)(=O)=O)c1,inactive: 9.61%,
Cc1ccc(S(=O)(=O)N2CCN(CN3C(=O)CC4(CCCC4)C3=O)CC2)cc1,inactive: -22.2%,
COc1ccccc1C(=O)Nc1ccccc1SC,,"inconclusive [inhibitor, single point]"
Cc1nn(-c2ccccc2)cc1/C=N/NC(=O)c1cccs1,,"inconclusive [inhibitor, single point]"
COc1ccc(CCNC(=O)CCS(=O)(=O)Cc2ccccc2C)cc1OC,inactive: -5.23%,
O=C(CCCn1c(=O)c2cccn2c2cccnc21)NCc1cccc(Br)c1,,"inconclusive [inhibitor, single point]"
O=C(CSc1ccccn1)Nc1ccc2c(c1)oc1ccccc12,,"inconclusive [inhibitor, single point]"
Cc1nc(Sc2nnnn2C2CC2)c2c(-c3ccccc3)csc2n1,,"inconclusive [inhibitor, single point]"
CCOC1=C2CN(S(=O)(=O)c3ccc(C)cc3)[C@H](c3ccccc3)C[C@@H]2N(S(=O)(=O)c2ccc(C)cc2)[C@H](c2ccccc2)C1,inactive: -5.94%,
CC(CCc1ccccc1)NC(=O)CN(C)Cc1ccccc1F (configuration not stated),,"inconclusive [inhibitor, single point]"
Cc1onc(-c2ccccc2Cl)c1C(=O)NCCCN1CCOCC1,inactive: -22.2%,
CCC(=O)N1CCc2cc(CNS(=O)(=O)c3ccc(Cl)s3)ccc21,,"inconclusive [inhibitor, single point]"
COc1cc(C(=O)OCC(=O)N(C)Cc2ccccc2)cc(OC)c1OC,,"inconclusive [inhibitor, single point]"
COc1cc(NC(=O)c2ccc(Br)o2)ccc1NC(=O)c1ccccc1Cl,,"inconclusive [inhibitor, single point]"
COc1cccc(C(C(=O)NC2CCCC2)N(C(=O)c2ccco2)c2ccc(-n3cnnn3)c(C)c2)c1OC (configuration not stated),,"inconclusive [inhibitor, partial curve, poor fit]"
Cc1nc2nc(SCC(=O)c3cccc([N+](=O)[O-])c3)[nH]c2cc1Br,,"inconclusive [inhibitor, single point]"
CCCCn1nnnc1C(c1ccc(OC)cc1)N1CCN(C/C=C/c2ccccc2)CC1 (configuration not stated),,"inconclusive [inhibitor, single point]"
Cc1ccc(S(=O)(=O)N2CCN(C3CC4CCC3C4)CC2)cc1 (configuration not stated),,"inconclusive [inhibitor, partial curve]"
O=C(Nc1ccc2c(c1)OCO2)C1CCCN(S(=O)(=O)Cc2ccccc2)C1 (configuration not stated),,"inconclusive [inhibitor, single point]"
NC(=S)NNc1ccc(Cl)c(Cl)c1,,"inconclusive [inhibitor, single point]"
Cc1ncccc1C(=O)N1CCCC(c2cc(C(=O)Nc3ccc(C(C)(C)C)cc3)no2)C1 (configuration not stated),,active: 13 µM
CCN1CCN(S(=O)(=O)c2ccc(Cl)c(C(=O)N(C)Cc3cccs3)c2)CC1,,"inconclusive [inhibitor, single point]"
O=C(NCC1COc2ccccc2O1)c1c[nH]c2ccc(S(=O)(=O)N3CCOCC3)cc2c1=O (configuration not stated),,active: 11.6 µM
CCOc1ccc(NC(=O)C(C)Oc2ccccc2C(=O)Nc2ccc(C)c(Cl)c2)cc1 (configuration not stated),,"inconclusive [inhibitor, single point]"

SMILES,"activity change, negative = growth inhibition",Potency
CCOc1ccccc1N1CCN(C(=O)c2cc(C)oc2C)CC1,,active: 18.4 µM
C=CCn1c(=S)[nH]c2cc(C(=O)Nc3ccc(OC)c(OC)c3)ccc2c1=O,inactive: 2.29%,
CCOc1ccc(-n2c(SCC(=O)N3CCc4ccccc43)nnc2-c2c[nH]c3ccccc23)cc1,,"inconclusive [inhibitor, single point]"
COC(=O)CCCCCCCCC(O)CN(C)C (configuration not stated),,"inconclusive [inhibitor, single point]"
Cc1cc(Nc2cccc(F)c2)n2nc(-c3ccco3)nc2n1,,active: 18.4 µM
Cc1ccc(NC(=O)Nc2ccccc2C(N)=O)cc1,,"inconclusive [inhibitor, single point]"
COc1ccc(-c2cc(C)no2)cc1S(=O)(=O)Nc1ccc(NC(C)=O)cc1,,"inconclusive [inhibitor, partial curve]"
CSc1ccc(CCNS(=O)(=O)c2csc(C(N)=O)c2)cc1,inconclusive: -31.3% [inhibitor],
NC(=O)C1(N2CCCCC2)CCN(C(=O)Nc2ccc(Cl)c(Cl)c2)CC1,inactive: -27%,
CCOP(=O)(c1ccccc1)c1nc(-c2ccccc2C)oc1NCc1ccccc1 (configuration not stated),,"inconclusive [inhibitor, single point]"
CCOc1ccc(-n2c(O)c(/C=N/Nc3nc(C)cc(C)n3)c3ccccc3c2=O)cc1,,active: 2.59 µM
CCN(CC)C(=O)C(Sc1ccccc1)c1ccccc1 (configuration not stated),inactive: -15.1%,
COc1cccc(-c2nc(CS(=O)(=O)CC(=O)NCCc3ccccc3)c(C)o2)c1,,"inconclusive [inhibitor, single point]"
CCOC(=O)c1c(NC(=O)CSc2nnc3c(Cl)cc(Cl)cn23)sc2c1CCC2,,"inconclusive [inhibitor, single point]"
CC(=O)N1c2ccc(S(=O)(=O)N3CCCC3)cc2CC1C(=O)NC(C)C (configuration not stated),inactive: -2.74%,
Cc1ccc(C(=O)Nc2ccc(N3CCOCC3)cc2)cc1S(=O)(=O)N1CCCCC1,,"inconclusive [inhibitor, partial curve, poor fit]"
O=C(O)c1cccc(-n2cccc2/C=C/[N+](=O)[O-])c1,inactive: -14.1%,
CCNC(=S)N1CCC(C(=O)c2ccc(F)cc2)CC1,inconclusive: -8.04% [inhibitor],
Cc1ccc(C2CC(c3cccs3)=NN2C(=O)c2ccc(Br)o2)cc1 (configuration not stated),,"inconclusive [inhibitor, single point]"
COc1ccc2oc(C(=O)N3CCN(S(=O)(=O)c4ccc(F)cc4)CC3)c(C)c2c1,,"inconclusive [inhibitor, single point]"
O=C(c1cccs1)N(Cc1ccco1)Cc1cc2ccccc2[nH]c1=O,,"inconclusive [inhibitor, single point]"
CCCn1c(N)c(N(CCOC)C(=O)CCC2CCCCC2)c(=O)[nH]c1=O,inactive: -21.4%,
O=C(O)/C=C\C(=O)Nc1ccccc1C(=O)N1CCC(O)(c2ccc(Cl)cc2)CC1,,"inconclusive [inhibitor, single point]"
COc1ccc(C(=O)c2c3ccccc3[n+]([O-])n2Cc2ccc(C(N)=O)cc2)cc1,,"inconclusive [inhibitor, partial curve]"
